The values that follow come from a compilation of properties of binary mixtures (doi:10.1021/je1012444).

This series can be described thus: xn = mol fraction of the nth substance listed. The settings on record: 100 kPa.

Some of these densities may be calculated back from excess volumes.

As for `CCCC[n+]1ccn(C)c1.F[P-](F)(F)(F)(F)F` + CCO, the mass density (as a rule, mass per unit of volume) by setting is: (313.2 K, x2 = 0.1) 1340 kg/m3; (313.2 K, x2 = 0.2) 1315 kg/m3; (313.2 K, x2 = 0.4035) 1262 kg/m3; (313.2 K, x2 = 0.4959) 1235 kg/m3; (333.2 K, x2 = 0.1) 1320 kg/m3; (333.2 K, x2 = 0.2) 1298 kg/m3. Further, the mass density is, setting by setting: (333.2 K, x2 = 0.2892) 1284 kg/m3; (333.2 K, x2 = 0.4035) 1246 kg/m3.
For the compound `CCCC[n+]1ccn(C)c1.F[P-](F)(F)(F)(F)F` + c1ccccc1, the mass density reads like this: (313.2 K, x2 = 0.0999) 1335 kg/m3; (313.2 K, x2 = 0.2002) 1314 kg/m3; (313.2 K, x2 = 0.3003) 1289 kg/m3; (313.2 K, x2 = 0.3953) 1260 kg/m3; (313.2 K, x2 = 0.5001) 1226 kg/m3; (313.2 K, x2 = 0.6779) 1149 kg/m3. Moreover, the mass density is, setting by setting: (333.2 K, x2 = 0.0999) 1317 kg/m3; (333.2 K, x2 = 0.2002) 1296 kg/m3; (333.2 K, x2 = 0.3003) 1272 kg/m3; (333.2 K, x2 = 0.3953) 1242 kg/m3; (333.2 K, x2 = 0.5001) 1210 kg/m3.
